# The list shows a part of the results. Values come from read counts of a selection and are noisy. Scores sum up all selected molecules that hold the word; the word was not tested alone.
# Molecular target: IMP3 full-length (UniProt O00425)
# Assay: 6-mer SELEX enrichment z-score vs GST control; IMP3 is the RNA-binding protein IGF2BP3; higher = more enriched by binding
# Details: construct: FL IMP3 (1-579); SELEX round: R4
# Experimental: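 SELEX-seq with GST-tagged full-length IMP3 and an N40 RNA pool, round 4. Each 6-mer is scored as an enrichment z-score of sequence tags containing it, normalised to the matching GST SELEX round. RNA written as DNA (T = U).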
# Chain of UniProt O00425 (O00425 whole entry): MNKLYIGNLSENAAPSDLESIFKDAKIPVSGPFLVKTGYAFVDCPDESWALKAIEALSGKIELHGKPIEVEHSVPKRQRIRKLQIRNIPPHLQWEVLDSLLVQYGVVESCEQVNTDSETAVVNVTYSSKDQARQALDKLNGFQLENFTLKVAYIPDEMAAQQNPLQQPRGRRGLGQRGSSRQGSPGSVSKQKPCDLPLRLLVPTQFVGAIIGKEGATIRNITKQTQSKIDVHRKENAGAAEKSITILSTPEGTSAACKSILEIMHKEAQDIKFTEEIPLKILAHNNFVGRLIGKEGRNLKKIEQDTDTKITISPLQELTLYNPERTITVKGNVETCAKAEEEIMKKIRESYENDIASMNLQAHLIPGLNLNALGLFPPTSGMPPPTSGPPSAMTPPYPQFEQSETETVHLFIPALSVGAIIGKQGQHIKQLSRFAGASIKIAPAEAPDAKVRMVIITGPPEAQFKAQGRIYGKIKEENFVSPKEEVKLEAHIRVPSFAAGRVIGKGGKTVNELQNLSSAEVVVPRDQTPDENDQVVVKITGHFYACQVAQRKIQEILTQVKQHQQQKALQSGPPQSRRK
row,Sequence,6-mer SELEX enrichment z-score
1,AAGCCT,-0.953
2,GTACTT,-0.253
3,CACTCT,0.128
4,CAACTT,0.066
5,TGGTTT,0.106
6,AAGCTA,-0.69
7,GGGTTG,0.215
8,ACGCGT,-0.919
9,GCTGTT,0.02
10,ATCCGA,-0.973
11,CCGCTC,0.267
12,GGAAGG,0.343
13,GCTAAG,-0.15
14,GGCACG,2.63
15,TTAAGC,-0.483
16,ACCAGA,-0.842
17,TTTATG,0.118
18,CCACGG,0.253
19,TGCCTT,-0.346
20,GGGTAT,0.16

row,Sequence,6-mer SELEX enrichment z-score
1,ACACCT,-0.617
2,CGCGAC,-0.048
3,CCTAGA,-1.1
4,TGAGAA,-0.641
5,AAAAAG,-3.07
6,TGCGCC,-0.018
7,TTGGAC,-0.162
8,TGTCTG,0.085
9,GGACCT,-0.861
10,CCGATA,-0.533
11,CGTGTC,-0.016
12,AAGAGT,-0.522
13,GGCCGC,1.28
14,ACTCAC,-0.082
15,GCTTGG,0.092
16,AAGCGA,-1.26
17,CTGACT,-0.685
18,GGAGCT,-0.017
19,GGTCTA,0.116
20,TAAATT,-0.229
